Test results: the GPR68 mutational scans of Howard et al. (2025)

B1: GPR68, Q15743 (parent)
chain: MGNITADNSSMSCTIDHTIHQTLAPVVYVTVLVVGFPANCLSLYFGYLQIKARNELGVYLCNLTVADLFYICSLPFWLQYVLQHDNWSHGDLSCQVCGILLYENIYISVGFLCCISVDRYLAVAHPFRFHQFRTLKAAVGVSVVIWAKELLTSIYFLMHEEVIEDENQHRVCFEHYPIQAWQRAINYYRFLVGFLFPICLLLASYQGILRAVRRSHGTQKSRKDQIQRLVLSTVVIFLACFLPYHVLLLVRSVWEASCDFAKGVFNAYHFSLLLTSFNCVADPVLYCFVSETTHRDLARLRGACLAFLTCSRTGRAREAYPLGAPEASGKSGAQGEEPELLTKLHPAFQTPNSPGSGGFPTGRLA

Tests used:
[1] = variants of: B1; experiment: cAMP reporter score (Enrich2 score, wild type = 0); higher = more signal; HEK293T, FACS bins
[2] = variants of: B1; experiment: surface expression score (Enrich2 score, wild type = 0); higher = more signal; HEK293T, FACS bins

Variant | cAMP reporter score ([1]; pH 6) | cAMP reporter score ([1]; pH 6, modulator: ogerin) | cAMP reporter score ([1]; pH 6.5, modulator: ogerin) | surface expression score [2]
L112F | -0.673 | -0.652 | -0.412 | -0.375
L112I |  |  | -0.377 | 
L112D | -0.534 | -1.06 |  | 
Q219_K220insG | -1.56 | -1.28 | -2.06 | 
A211W |  |  | -2.38 | 1.29
A211G | -0.644 |  | 0.134 | 2.01
H294_R295insGS | 1.75 |  | -0.685 | 
K148_E149insGSG |  | -2.93 | -0.971 | 
Y155A | 1.09 | 0.796 | -0.425 | 0.233
Y155V | 0.884 | 0.92 | 0.821 | 
L200C |  | -0.831 | 0.33 | 
L200N |  | -4.08 | -0.443 | -0.44
L200R | -0.114 | -2.03 |  | -0.455
L200W |  |  | -0.437 | -0.412
S356I | 0.22 | 1.28 | 1.03 | 0.363
A138L |  |  |  | -1.94
A138H |  | -0.735 | 0.239 | 
A138M |  | -1.67 | -2.11 | -2.38
A138T |  | -0.118 | -0.427 | 
A138K | -1.45 | 0.394 | -1.35 | 
S353F | 2.18 |  |  | 1.15
S353Q | 0.658 | 0.915 | -0.438 | 
A239_C240insGS |  | -2.6 | -1.53 | -1.41
K136Q | 1.68 | -0.266 | 0.222 | 
Y106_I107insGSG |  |  | -0.332 | 

Variant | cAMP reporter score ([1]; pH 6) | cAMP reporter score ([1]; pH 6, modulator: ogerin) | cAMP reporter score ([1]; pH 6.5, modulator: ogerin) | surface expression score [2]
E160N | 1.76 | 0.986 | 2.95 | 
E160M | 3.92 | 1.27 | 4.51 | 1.41
E160V |  | -2.32 |  | 
E160I | -0.2 | -0.702 | -0.4 | 0.526
E160P | 2.41 | 0.459 |  | -0.199
E164M |  |  | -2.53 | -0.431
V26H |  | -1.36 | -0.395 | -0.289
V26K |  | -2.78 | -2.34 | 
L191C | 0.83 | 1.26 | -0.012 | 2.48
A261F | -0.49 | -1.23 | -0.323 | 
L238N |  |  | -0.333 | 
L238R |  | -1.27 | -0.859 | -3.14
Y187_Y188insG | 0.408 | -0.682 |  | 
L48_Q49insGS |  | -0.746 | -0.051 | -2.75
I115C |  | -0.729 |  | -0.99
I115K | -0.587 |  | -0.5 | -2.5
I115P |  | -1.31 |  | -2.38
I115L | -0.875 | -0.221 | -0.71 | 
H169_V171del | -0.826 | -1.62 | -0.572 | 
V234_V235insG |  |  | -1.11 | 
E161T | 3.46 |  |  | -0.057
E161V | 2.45 |  |  | 
E161W |  | -1.19 | -0.824 | 0.086
F111Y | -0.542 | -0.661 |  | -1.36
F111A |  | -1.2 | -0.443 | -0.778

Variant | cAMP reporter score ([1]; pH 6) | cAMP reporter score ([1]; pH 6, modulator: ogerin) | cAMP reporter score ([1]; pH 6.5, modulator: ogerin) | surface expression score [2]
F111T |  |  | -1.12 | -3.57
F111K | -1.16 | -1.7 | -1.63 | -2.34
Y188D | -0.474 |  | -0.049 | -2.04
Y188K | 1.96 | 0.263 | -0.434 | 
N8E |  |  |  | -0.263
T275R |  | 0.033 |  | 
F359C |  | 0.196 | 0.837 | 1.77
L202del | -0.119 | -0.064 |  | 
H125del |  |  | -0.172 | -2.8
I105N | -0.246 | -0.253 |  | 
I105Y |  | -0.624 |  | 
I105H | -0.55 | -0.444 | -0.603 | -2.96
I105R | -0.042 | -2.31 |  | -0.408
I105F |  | -0.665 |  | -0.314
I105P |  |  | -0.918 | 
I105G | -0.547 | -0.731 | -0.967 | -3.95
I105E |  | -0.606 |  | -0.427
V81R |  |  | 2.95 | -0.423
F196Q | -0.599 |  | -0.427 | 
F196E |  | -0.724 | -0.437 | -1.16
F241R | -0.2 |  |  | -0.411
F241N | 4.54 |  |  | -1.09
I198K | -0.39 | -2.17 |  | -0.548
I198A | 3.66 | 1.72 | 0.806 | 
I198S |  | 1.69 |  | -0.896

Variant | cAMP reporter score ([1]; pH 6) | cAMP reporter score ([1]; pH 6, modulator: ogerin) | cAMP reporter score ([1]; pH 6.5, modulator: ogerin) | surface expression score [2]
I198G |  | 0.009 | -0.175 | 
I198T |  | -0.278 | 3.39 | 
P197_I198del | -1.06 |  | -0.852 | -1.64
R312P | -0.159 | 0.482 | -1.02 | -0.325
R312V | -0.463 | 1.21 | 0.001 | -0.375
R312G | 2.98 | 1.75 |  | 1.93
Q168P |  |  | -1.19 | 
Q168Y |  | 0.715 | 0.244 | 2.46
L41H |  | -0.683 | -1.52 | -1.18
F156W | -0.474 | -0.602 |  | 
F156N | 0.486 | -0.666 |  | -2.03
L274G |  | -2.27 | -1.98 | -3.06
L274T |  |  |  | -3.3
V144N |  | -2.49 | -3.9 | 
V144P | 0.298 | -2.54 | -1.32 | -2.49
V144R |  | -2.42 | -1.9 | -2.48
P126G |  |  |  | -0.29
P126I |  | -0.731 | -0.958 | -3.66
P126F | 1.9 | -0.326 | -0.446 | 
P126W | -0.781 | -0.606 | -1.13 | -2.69
K343Q | 1.15 | 1.24 |  | 2.95
L231_S232insG |  | -1.28 | -1.49 | 
Q206Y | 1.18 | 0.608 | 0.452 | 1.27
Q206L |  | -0.005 |  | 0.597

Scores whose standard error is large were omitted. The source holds two more conditions with little spread; they are left out. Read del as a deletion of the residues named and ins as an insertion between two positions. For some assays here: How much ogerin was present is not stated here.
